# Source: the supplement of paper PMC11417369
# ± gives the standard deviation of the averaged measurements. The list shows a part of the results.
# System: PfAP2-I AP2 domain 3 (GST-tagged)
# Assay: gcPBM binding intensity (ln(normalized median fluorescence intensity)); higher = stronger DNA binding
# How it was run: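 After 1 h on an Agilent 4 × 180k array of primer-extended double-stranded 36-bp intergenic genomic probes and negative controls, bound GST-tagged P. falciparum DNA-binding domains were detected with Alexa488 anti-GST antibody and scanned at 488 nm. The domains had been expressed in E. coli, and binding took place in 1× PBS with 1% milk, 0.2 mg/ml BSA, 0.5% salmon testes DNA and 0.03% Triton X-100. Binding intensity is the highest Masliner-normalised natural-log median intensity across replicate spots of either probe orientation.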
row,Sequence,gcPBM binding intensity (ln)
1,TATAAATAAAGACACACACACACACCGTATAATTAC [CACACA_site7829],8.01 ± 0.4
2,TAATAAAACATATATACACACATTAGATATACATAT [CACACA_site6897],7.64 ± 0.37
3,TTCCCAACATGATATTGTACATTTAATTATAATTAA [XGTACX_site7029],8.18 ± 0.43
4,TATATCTCTTTATTCACACATACGTTTTAAAATAAT [CACACA_site5542],8.08 ± 0.42
5,CCAGGAAAAATTTATTGTACATATATTTTTATGCTC [XGTACX_site7154],7.68 ± 0.53
6,TATATTAAAAAAAAATGTACACATATATATATATAT [XGTACX_site4524],9.44 ± 0.26
7,ATATTATTAATTTGTTGTACAGTTCTTTATTTATAG [XGTACX_site7932],7.92 ± 0.57
8,TATATGTTTGAATATACACACAACATATATATATAT [CACACA_site4066],9.3 ± 0.63
9,TATTTTTGGTTATGTGTGCACTATGAACAACAAAAT,11.4 ± 0.26
10,GACACCTGCATGAAAGTGCAAAATAGAAAAGGAACA [GTGCAC_site9593],10.6 ± 0.27
11,TTACCTCTTTGAAATATACACACTAAACATATCAAC [CACACA_site2455],8.06 ± 0.38
12,AAGGAATAATAATAAATGTAAAGAAAAGCATACTGA [CACACA_negctrl_site36],7.58 ± 0.78
13,AAATACCTTATATATACACACTATGTTTTTCTTTTT [CACACA_site4792],7.89 ± 0.75
14,AACACGCACAGACACACACACAAAAATGATTAAAAA [CACACA_site7195],8.29 ± 0.15
15,TTTATGAGGTTACTATGTACGCAAATTATGTAATAA [XGTACX_site325],8.19 ± 0.13
16,ATTTGTGTTATTCGAAGTACGGATCATTTGAAATAA [XGTACX_site2510],7.78 ± 0.41
17,AAAAGAAGAAACAAAACACACACAGTCTTCTTTTCT [CACACA_site9015],7.67 ± 0.95
18,AGCAATTTGGGGTGTACACACACCTTATTTAAATTA [CACACA_site1157],8.23 ± 0.22
19,TCAAATTATTAAAATACACACATATTATATATATAT [CACACA_site2530],8.93 ± 0.25

row,Sequence,gcPBM binding intensity (ln)
1,TCGAACGTATCATGTGTACACACAAATTGTTTTTTT [CACACA_site8623],8.13 ± 0.36
2,CCTTGCCCCAGGAGTTCACACACATAATAGATTGTC [CACACA_site8138],7.88 ± 0.77
3,GTATAAAAGTAACTAGTGCATTACATATGAATAAAA,11.4 ± 0.6
4,AGATATTTTTCTTAAGTACACACTAATTAGAAACTA [CACACA_site7897],7.89 ± 0.45
5,TTTTTATTTTAAAAGAATAATTATCTAATATCTATA [CACACA_negctrl_site371],7.31 ± 0.52
6,ATATTTTAAAATAATACACACAAAATGATTCTTAAT [CACACA_site2930],7.9 ± 0.72
7,AACAATAAATTATTATGTACACATATATTATATATA [XGTACX_site4629],7.64 ± 0.28
8,TATATTATATAATTTTAACACACAAGAATATAAACT [CACACA_site8378],8.05 ± 0.69
9,ATAAGTATTACTAGTACACACAAGTTGTTAATCCTT [CACACA_site3324],8.04 ± 0.66
10,CATAAATACAAATATACACACATATTTATATTTATA [CACACA_site7277],7.7 ± 0.34
11,AATATGTTTTACGTCTCACACATATAGGTTTATATT [CACACA_site4713],7.75 ± 0.73
12,ATTATACTTTCCATTCGTACATATATAAATAAATAA [XGTACX_site6245],8.25 ± 0.45
13,ATATATAGATGTGAATTATTTATATTATCTATTCTT [CACACA_negctrl_site518],7.3 ± 0.47
14,AAACTTCAAAAAGAGCACTTGAATTTTTTTTTTTTT [TGCATGCA_negctrl_site133],7.92 ± 0.39
15,AAAAAGAACACAAAAAGTACAAAAATTATAATGATA [XGTACX_site2676],7.69 ± 0.61
16,TCAAAGTAAAACAGGACATGCACAGAACATCCTGCC [TGCATGCA_site2],7.73 ± 0.93
17,TACACAAAGTTACATACACACTAATATTTACACCAT [CACACA_site6602],8.07 ± 0.4
18,TAAAGAAAAATATAAAGTACAAAAATAAAAAAAATA [XGTACX_site8226],7.88 ± 0.41
19,AAAAAAAAAACATACACACACATATAGATTTATATG [CACACA_site6847],7.56 ± 0.49

row,Sequence,gcPBM binding intensity (ln)
1,GTATTTATGTGTTTGGTGCAAGGGAGAATTTTTTTT,8.87 ± 0.29
2,ATATAATCTGAGTGCACACAAATAAATAAACATACA [CACACA_site422],10.6 ± 0.16
3,TTTTTTTTGTATTTTTCACACACACCGAAGTAAACA [CACACA_site8575],8.24 ± 0.42
4,TAAAAGGATGCATATACACACATATAGATTTATATA [CACACA_site7336],7.74 ± 0.45
5,TTAAATTCGTCATTTTAAAATAATACAAAAGTTCAA [CACACA_negctrl_site19],7.45 ± 0.45
6,TTTTTCCTTATTAATACACACATTCACCTTTTAAAT [CACACA_site479],8.41 ± 0.62
7,AGTTGCATACATTGAAGTACAGAACATTTATATATA [XGTACX_site240],7.86 ± 0.44
8,CTTATGTGCATACCTACACACTTACCTATATTTATA [CACACA_site7411],8.62 ± 0.45
9,TTACGATTTAAAATGGGTACATATATATGAAAAAAA [XGTACX_site545],7.96 ± 0.5
10,TCACTAAACCATTAGAGTACTTGACATATAATGAGC [XGTACX_site3272],7.61 ± 0.52
11,TATATATAAAAAACATGTACACAAATTTACATACAT [XGTACX_site4777],7.96 ± 0.21
12,AAGAGTTAAAAAAATACACACATATATATTTTTTTA [CACACA_site1980],7.62 ± 0.65
13,TTTTTGTATGCTTCCCGACTACATTATGCCATAAAT [CACACA_negctrl_site136],8.09 ± 0.69
14,GATTATATATGAAAATGTACAAATATATATATATAT [XGTACX_site5963],9.34 ± 0.51
15,AAAAAAAAAAAAAAAAAAAAAAAAAAATACATATGT [XGTACX_negctrl_site95],9.88 ± 0.47
16,AAACCAAGGCACAATAATTAAATAAATAAAATCATG [GTGCAC_negctrl_site574],8.01 ± 0.35
17,ATATAATTTTTCAAGTGTACTTTTTTTTTTTAACAT [XGTACX_site3050],8.27 ± 0.028
18,ATTTATATATATATAGGTACACATATTTATATATAA [XGTACX_site8487],7.58 ± 0.41
19,TCATTCATATGTTACACACACACACCCACATAAAAA [CACACA_site3245],8.24 ± 0.48
